Consider 56 sequences from the supplement of paper PMC11417369.

± gives the standard deviation of the averaged measurements. This is one part of the list.

The test system of the assay is PfAP2-I AP2 domain 3 (GST-tagged). The experiment in a line: gcPBM binding intensity (ln(normalized median fluorescence intensity)); higher = stronger DNA binding. A digest of the protocol:
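Binding of GST-tagged P. falciparum DNA-binding domains, expressed in E. coli and used at about 25 μg on average, was carried out for 1 h in 1× PBS containing 1% milk, 0.2 mg/ml BSA, 0.5% salmon testes DNA and 0.03% Triton X-100. The target was an Agilent 4 × 180k array of primer-extended double-stranded 36-bp intergenic genomic probes plus negative controls, read with Alexa488 anti-GST antibody at 488 nm. Binding intensity is the highest Masliner-normalised natural-log median intensity across replicate spots of either probe orientation.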
Consider “ATACATATATTAGGATGTACGTTTATTTTAGTTATT [XGTACX_site7169]”, for which the “gcPBM binding intensity (ln)” value came to 7.7 ± 0.34.
“ATATATTTATATATTACACACAATATTGGAGACATA [CACACA_site931]”: the “gcPBM binding intensity (ln)” value was 7.94 ± 0.51.
Consider “TAAAAAAATAAAATTACACACATATATAGATATATA [CACACA_site7273]”, for which the “gcPBM binding intensity (ln)” value was 7.25 ± 0.57.
The result for “CACTTTTTTTAAATGTGTACGTATATGAAAATATCA [XGTACX_site4854]” reads 7.88 ± 0.4; that for “ATATACATATCATGTAGTACAATTTTTTTACTTTTT [XGTACX_site7988]”, 7.63 ± 0.41; that for “TAAACAAAAAGGAAGAGTACTTGTAAAATTTGTAAA [XGTACX_site3003]”, 7.86 ± 0.61.
In the case of “TGAATACATAAATATAGTACATATATATATATATTA [XGTACX_site8756]” it was 7.58 ± 0.15.
Turning to “AGATCATAATATTATACACACATTATGTATATGTAA [CACACA_site1490]”, the “gcPBM binding intensity (ln)” value was determined as 7.62 ± 0.49.
The result for “TATAATATTATTTGAAGTACAAACATAAAAGAATTA [XGTACX_site3161]” reads 7.66 ± 0.47.
The result for “GAACCATTTTTTGGTATACACACGTAATTATAGAAT [CACACA_site1851]” reads 7.79 ± 0.64; that for “TACAAAAAATTATGGAGTACATATATAATATACAAT [XGTACX_site1004]”, 7.96 ± 0.2; that for “GTTTCTATTCACATTTTACACACGTCCATCGCATTT [CACACA_site9142]”, 8.45 ± 0.76.
The result for “TTTTGTTGTATGATAATTCTTTTATCAATATGTCTT [TGCATGCA_negctrl_site567]” reads 7.45 ± 0.67; that for “ACCAAATTATCAAATGGTACACATAAAATAATAAAA [XGTACX_site865]”, 7.69 ± 0.59; that for “TAATTAACCTATGCATTCATATAGATACATAAATAT [CACACA_negctrl_site885]”, 8.1 ± 0.11.
Regarding “TAATTTTTTTTTTTTTTTCATTCTTTTCCTTTGATT [CACACA_negctrl_site1365]”, the “gcPBM binding intensity (ln)” value is 7.18 ± 0.61.
Turning to “TTTATATAATTTTTTTGTACATATATATGAATACAT [XGTACX_site2316]”, the “gcPBM binding intensity (ln)” value stood at 7.73 ± 0.54.
In the case of “TATATTTTCCTGCAAACACACATATAAATGGGTAGA [CACACA_site4451]” it was 8.29 ± 0.76; in that of “TTTTTTTTTTTTGGTAGTACATAATATTAATATAAT [XGTACX_site4422]”, 8.11 ± 0.62; in that of “ATATACTCATTTAATACACACAAAGAGAAAATTAAT [CACACA_site1923]”, 7.92 ± 0.4.
In the case of ATATATATATATATGGTGCATGAAAATTTACTTTGA it was 10.11 ± 0.085; in that of “GATATTTGTTCATATACACACTTTTGATAAAATATG [CACACA_site4807]”, 7.82 ± 0.59.
For “TACTTTTATAAAAATTTTATCAAATTCTATATATGT [TGCATGCA_negctrl_site308]”, the “gcPBM binding intensity (ln)” value worked out at 7.79 ± 0.38.
With “TTTTAAATTTAGTGTAGTACACTTTTTTCAAATATA [XGTACX_site4659]”, the “gcPBM binding intensity (ln)” value turned out to be 7.99 ± 0.37.
Take “ATATTATCATTTTTTTTAATGGAAAAAAAAAAAAAA [CACACA_negctrl_site1298]”: the “gcPBM binding intensity (ln)” value is 8.03 ± 0.57.
The result for “ATATAATTCAAATACAGTACATATACAATATATACA [XGTACX_site1191]” reads 7.69 ± 0.34.
With “ATATATATAAAAGAAACAACATTTATTCAAAAGGTA [CACACA_negctrl_site749]”, the “gcPBM binding intensity (ln)” value stood at 7.91 ± 0.63.
For the sequence “TTATTCTTTTAATATACACACTTTGTCTTTTCGCGC [CACACA_site5525]”, the “gcPBM binding intensity (ln)” value was found to be 7.63 ± 0.85.
The result for “TACATATTTATATACACACACACACGGATATTTATA [CACACA_site7239]” reads 8.02 ± 0.19; that for “ATTCAAAAGATGTATACACACATGTGGATAATATAA [CACACA_site2443]”, 8.03 ± 0.61.
On to “GCACCCTGTATGAATGCACACATTCATAGAATTGCT [CACACA_site5475]”, for which the “gcPBM binding intensity (ln)” value was 9.42 ± 0.042.
In the case of “AATAACAAAATAGGCACACGCACATATATATATATA [CACACA_site1497]”, the “gcPBM binding intensity (ln)” value was 9.43 ± 0.48.
In the case of “TATTTTTCTTTTTAAAAATATATCACATGAACATTA [XGTACX_negctrl_site183]” it was 7.43 ± 0.52.
Take “CCCCTTGTGGATTCTACACACAAAAAGTCGTCAAAA [CACACA_site821]”: the “gcPBM binding intensity (ln)” value was found to be 8.09 ± 0.76.
In the case of “GAATTCCTTTGTGTATGTACATAATGATATTATTTT [XGTACX_site7369]” it was 7.83 ± 0.55.
The result for “TGATCAAATAAGTTTGCATGTCAACAATGCATATAT [TGCATGCA_site1025]” reads 7.92 ± 0.66; that for “TAATTTTTTAAACACACACACATATATATATATATA [CACACA_site4230]”, 9.56 ± 0.57.
With “CATATCTCAATTTATGCATGCAGGATTTTTCTAATA [TGCATGCA_site516]”, the “gcPBM binding intensity (ln)” value was found to be 8.03 ± 0.69.
“ACACAAAAAAAAAAAAAAAAAAAAAAAAAAAAGGAA [CACACA_negctrl_site1162]”: the “gcPBM binding intensity (ln)” value stood at 7.82 ± 0.59.
In the case of “AATATGTACAGACATACACACATATATATATATATA [CACACA_site1222]” it was 9.27 ± 0.43; in that of “TTTTTTTTTTTTTGGTGTACATTTATAAAAAAAAAA [XGTACX_site8368]”, 8.21 ± 0.35.
For “ACATATAAGATTATGTGTCCACAAAAAAATAAAACA [XGTACX_site2867]”, the “gcPBM binding intensity (ln)” value was determined as 7.95 ± 0.31.
For the sequence “TTTTATGTTCTTAATGCACACTTATAAGTATCTTAT [CACACA_site4895]”, the “gcPBM binding intensity (ln)” value came out at 11.4 ± 0.72.
The result for “TTTTTTTATTATTCTTATATAAAAATTTTTTTTAAT [CACACA_negctrl_site159]” reads 7.57 ± 0.57; that for “TTTTTAATAACACTTTTGAAAAATAAAATAAAATAA [CACACA_negctrl_site821]”, 7.87 ± 0.52; that for “GTATATAATTTTTTATGTACTAAATTATATGTTTTT [XGTACX_site4907]”, 7.51 ± 0.49.
Regarding “ATCTATTTGTAAAGGGTGCGCATATCAATAAAAAAT [GTGCAC_site9503]”, the “gcPBM binding intensity (ln)” value is 10.1 ± 0.3.
The result for “CACACAAAGGAATATACACACATATTTATATTTATA [CACACA_site7841]” reads 7.68 ± 0.28; that for “CAAAATTTTTATAAGTCACACATTATCTAAGCTTAT [CACACA_site5747]”, 7.57 ± 0.45.
For the sequence “TACCTAATATGTTATACACACATTAGAAGTACATAT [CACACA_site5375]”, the “gcPBM binding intensity (ln)” value was determined as 7.86 ± 0.42.
Consider “ATAAAAAAAAAAAAAAAATATATATATATATATATA [XGTACX_negctrl_site424]”, for which the “gcPBM binding intensity (ln)” value stood at 9.4 ± 0.23.
The result for “TTTTAGGTCTGAATGTGTACTAAATAATATAAGTAT [XGTACX_site6554]” reads 8.12 ± 0.34; that for “TGTAATAACGTTATAAAAAGTATAAAAAAAAAAAAA [CACACA_negctrl_site943]”, 7.9 ± 0.42; that for “TTATTTTTATTATTTTGTATATATATTTATAGAAAA [XGTACX_negctrl_site465]”, 7.84 ± 0.22.
In the case of “TATATACTTTTTAATCACACTTCTTTAAAAAAAGTA [CACACA_negctrl_site1380]” it was 7.7 ± 0.4; in that of TTTTTGTTATTATGTGTGCACATATATATATATATA, 10.3 ± 0.31.
